# Data as given in the supplement of paper PMC4967469.
# IC50 is the fitted dose that halves viability relative to control wells, and lower means more sensitive; a fit beyond the top or the lowest dose is shown as a bound at that dose. AUC is the area under the same curve over the 256-fold range up to the top dose, as a fraction; values near 1 show little effect. For some of these results: Where the top dose is marked as inferred, it was calculated from the reported fits.
# Legend:
# Assay in all cases: Viability of human cancer cell lines after 72 h of drug (GDSC screen)
# Bexarotene = compound: C=C(c1ccc(C(=O)O)cc1)c1cc2c(cc1C)C(C)(C)CCC2(C)C [Bexarotene]; settings: top dose 8 µM
# Experimental: (§1)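 Human cancer cell lines in 384-well plates, medium with 10% serum, drug for 72 h over a 256-fold dose range (nine 2-fold or five 4-fold steps up to the top dose). Adherent lines were fixed and stained with the nucleic acid dye Syto60, suspension lines read with resazurin; signal relative to control wells, capped at 0 and 100%. One two-parameter sigmoid per drug and line, fitted in a mixed model over all curves with the slope shared within a line.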
# BMS-345541 = compound: Cc1ccc2nc(NCCN)c3ncc(C)n3c2c1 [BMS-345541]; settings: top dose 16 µM
# Experimental: as §1
# XAV 939 = compound: Oc1nc(-c2ccc(C(F)(F)F)cc2)nc2c1CSCC2 [XAV 939]; settings: top dose 5 µM; top dose inferred
# Experimental: as §1
# NPK76-II-72-1 = compound: COc1cc(C(=O)NC2CCN(C)CC2)ccc1Nc1ncc2c(n1)N(C1CCCC1)C(C)CC(=O)N2C [NPK76-II-72-1]; settings: top dose 10.24 µM; top dose inferred
# Experimental: as §1
# YK 4-279 = compound: COc1ccc(C(=O)CC2(O)C(=O)Nc3c(Cl)ccc(Cl)c32)cc1 [YK 4-279]; settings: top dose 10 µM
# Experimental: as §1
# Etoposide = compound: COc1cc([C@@H]2c3cc4c(cc3[C@@H](O[C@@H]3O[C@@H]5CO[C@@H](C)O[C@H]5[C@H](O)[C@H]3O)[C@H]3COC(=O)[C@H]23)OCO4)cc(OC)c1O [Etoposide]; settings: top dose 16 µM
# Experimental: as §1
# AZD7762 = compound: NC(=O)Nc1cc(-c2cccc(F)c2)sc1C(=O)N[C@H]1CCCNC1 [AZD7762]; settings: top dose 2 µM
# Experimental: as §1
# GSK-650394 = compound: O=C(O)c1ccc(-c2c[nH]c3ncc(-c4ccccc4)cc23)cc1C1CCCC1 [GSK-650394]; settings: top dose 16 µM; top dose inferred
# Experimental: as §1
Cell Line,AUC (Bexarotene),IC50 (Bexarotene),AUC (BMS-345541),IC50 (BMS-345541),AUC (XAV 939),IC50 (XAV 939),AUC (NPK76-II-72-1),IC50 (NPK76-II-72-1),AUC (YK 4-279),IC50 (YK 4-279),AUC (Etoposide),IC50 (Etoposide),AUC (AZD7762),IC50 (AZD7762),AUC (GSK-650394),IC50 (GSK-650394)
"HH (T-cell leukaemia, suspension)",0.703,2.28 µM,0.642,2.82 µM,0.959,> 5 µM,0.613,1.46 µM,0.727,3.49 µM,0.644,2870 nM,0.669,436 nM,,
"IM-9 (myeloma, suspension)",0.99,> 8 µM,,,0.982,> 5 µM,,,0.585,1.03 µM,0.917,> 16000 nM,0.884,1650 nM,0.954,> 16 µM
"IST-SL2 (small cell lung carcinoma, suspension)",0.98,> 8 µM,0.845,11.4 µM,0.955,> 5 µM,,,0.945,> 10 µM,0.497,981 nM,0.865,1740 nM,0.843,11.2 µM
"JHU-011 (head and neck, adherent)",0.973,> 8 µM,0.712,3.93 µM,,,0.767,3.75 µM,0.637,1.48 µM,0.35,386 nM,0.576,201 nM,0.687,3.3 µM
"JHU-029 (head and neck, adherent)",0.95,> 8 µM,,,0.943,> 5 µM,,,0.664,2 µM,0.427,602 nM,0.694,500 nM,0.783,8.42 µM
"KE-37 (lymphoblastic leukaemia, suspension)",0.957,> 8 µM,0.572,1.5 µM,0.989,> 5 µM,0.478,0.567 µM,0.667,1.61 µM,0.148,123 nM,0.341,50.8 nM,,
"KMRC-1 (kidney, adherent)",0.986,> 8 µM,0.98,> 16 µM,,,0.987,> 10.2 µM,0.83,6.78 µM,0.913,> 16000 nM,0.791,959 nM,0.984,> 16 µM
"LOUCY (T-cell lymphoblastic leukaemia, suspension)",0.887,6.11 µM,0.282,0.278 µM,0.981,> 5 µM,0.577,0.996 µM,0.732,2.46 µM,0.221,188 nM,0.739,513 nM,,
"LU-65 (large cell lung carcinoma, suspension)",0.978,> 8 µM,0.842,14.3 µM,,,0.853,> 10.2 µM,0.985,> 10 µM,0.883,> 16000 nM,0.987,> 2000 nM,0.942,> 16 µM
"MKN45 (stomach, adherent)",0.983,> 8 µM,0.655,3.02 µM,0.944,> 5 µM,0.959,> 10.2 µM,0.725,3.28 µM,0.588,1860 nM,0.634,325 nM,,
"NB1 (neuroblastoma, semi-adherent)",0.957,> 8 µM,,,0.982,> 5 µM,0.933,> 10.2 µM,0.808,5.83 µM,0.781,7350 nM,0.62,277 nM,0.942,> 16 µM
"NB-4 (acute myeloid leukaemia, suspension)",0.965,> 8 µM,0.56,1.42 µM,0.991,> 5 µM,0.214,0.114 µM,0.432,0.422 µM,0.29,291 nM,0.377,61.4 nM,,
"NEC8 (testis, adherent)",0.99,> 8 µM,0.784,5.74 µM,,,0.893,8.92 µM,0.796,3.88 µM,0.413,602 nM,0.34,48.7 nM,0.933,> 16 µM
"NH-12 (neuroblastoma, adherent)",0.985,> 8 µM,0.869,> 16 µM,,,0.844,8.65 µM,0.477,0.536 µM,0.503,1020 nM,0.675,410 nM,0.766,6.59 µM
"PANC-04-03 (pancreas, adherent)",0.969,> 8 µM,0.953,> 16 µM,,,0.971,> 10.2 µM,0.826,> 10 µM,0.843,> 16000 nM,0.814,> 2000 nM,0.809,15.8 µM
"RERF-LC-Sq1 (lung squamous cell carcinoma, adherent)",0.978,> 8 µM,0.809,13.8 µM,0.906,> 5 µM,0.946,> 10.2 µM,0.814,9.1 µM,0.976,> 16000 nM,0.521,146 nM,,
"SCC90 (head and neck, adherent)",0.902,> 8 µM,0.853,> 16 µM,0.975,> 5 µM,,,0.711,3.22 µM,0.841,> 16000 nM,0.675,476 nM,0.894,> 16 µM
"SNU-182 (liver, adherent)",0.922,> 8 µM,0.853,13.4 µM,0.91,> 5 µM,0.924,> 10.2 µM,0.819,6 µM,0.539,1280 nM,0.465,100 nM,,
"STS-0421 (soft tissue, adherent)",0.978,> 8 µM,0.794,8.82 µM,0.836,4.13 µM,,,0.733,3.28 µM,0.635,2530 nM,0.543,167 nM,0.9,> 16 µM
